# The full ranking holds about 33,000 sequences; the median of “E-score (-0.5 to 0.5)” is about -0.043, and the highest 2% start at about 0.37. The list shows a part of the results.
# Target: T1, Upc2 (UniProt Q12151)
# T1 sequence: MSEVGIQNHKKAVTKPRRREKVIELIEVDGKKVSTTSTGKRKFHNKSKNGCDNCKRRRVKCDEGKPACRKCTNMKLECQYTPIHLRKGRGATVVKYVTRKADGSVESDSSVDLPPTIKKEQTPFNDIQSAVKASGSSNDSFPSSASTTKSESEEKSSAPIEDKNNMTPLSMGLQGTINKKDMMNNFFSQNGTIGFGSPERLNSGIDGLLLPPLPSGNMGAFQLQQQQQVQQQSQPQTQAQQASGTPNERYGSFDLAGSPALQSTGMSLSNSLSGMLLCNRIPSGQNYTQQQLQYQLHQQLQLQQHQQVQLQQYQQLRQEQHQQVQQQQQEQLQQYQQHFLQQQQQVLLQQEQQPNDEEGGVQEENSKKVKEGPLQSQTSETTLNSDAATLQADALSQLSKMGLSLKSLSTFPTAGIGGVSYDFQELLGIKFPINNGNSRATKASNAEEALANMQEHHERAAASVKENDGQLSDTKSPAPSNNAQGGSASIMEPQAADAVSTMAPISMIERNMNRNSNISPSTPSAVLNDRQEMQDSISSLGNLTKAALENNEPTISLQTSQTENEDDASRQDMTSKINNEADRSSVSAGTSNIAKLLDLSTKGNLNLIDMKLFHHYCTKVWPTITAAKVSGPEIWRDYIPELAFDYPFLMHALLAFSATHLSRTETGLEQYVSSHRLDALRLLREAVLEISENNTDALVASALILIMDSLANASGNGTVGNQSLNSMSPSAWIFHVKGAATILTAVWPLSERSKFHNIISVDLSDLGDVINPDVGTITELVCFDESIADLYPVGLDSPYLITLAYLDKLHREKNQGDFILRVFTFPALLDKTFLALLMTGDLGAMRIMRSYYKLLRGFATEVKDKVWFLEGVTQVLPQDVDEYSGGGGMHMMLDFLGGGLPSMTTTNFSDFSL
# Experiment: PBM E-score (8-mer binding enrichment) (E-score (-0.5 to 0.5)); higher = stronger / more preferred TF binding; most listed sequences are background and not binding sites
# Details: protein concentration: 200 nM; construct: GST-full length
# Method in brief: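 Full-length yeast transcription factors or their DNA-binding domains, GST-tagged and expressed with PURExpress, were applied at about 100-200 nM to universal all-10-mer Agilent arrays. These arrays had been made double-stranded by primer extension on fresh or once-stripped slides. Detection used fluorescent anti-GST, normalisation used masliner, and E-scores for ungapped eight-base words pooled with reverse complements came from the Universal PBM Analysis Suite.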
row,Sequence,PBM E-score
1,AAAAATTT,0.151
2,ACGAAAAT,0.362
3,CACAGCCC,-0.231
4,GTGAAGGA,-0.0439
5,CAAACCGA,0.118
6,ACGTATGG,0.329
7,ACTTCAAG,-0.156
8,ACTGTCTA,0.0492
9,GCTTCGCA,0.186
10,AACAGGGG,-0.185
11,AGGGCAAG,-0.113
12,ATACGATG,0.473
13,GAGCGAGC,0.273
14,AGATAAAA,-0.00321
15,AATTTCGT,0.307
16,CGCTTGAG,0.027
17,AAGCGACA,0.223
18,AAGGTAGT,-0.0541
19,AACGCAGC,0.162
20,AGTAACGA,0.299
21,GACACATA,-0.105
22,AGGAACTC,-0.0466
23,ACTGTTCA,-0.117
24,TCGCTAAA,0.316
25,CACTCACA,-0.0817

row,Sequence,PBM E-score
1,AGGTCCAT,-0.251
2,AGGCCGCA,0.0421
3,ATTATATA,0.0992
4,CCGACACA,-0.00715
5,CGATATCA,0.143
6,CACCGTCC,-0.16
7,AATCGCCG,0.0504
8,GCCGGTGA,-0.173
9,ACCATCCA,-0.342
10,CCATCAAG,-0.12
11,GGACTCCA,-0.212
12,AGAAAACG,0.149
13,CCCCATGA,-0.336
14,CATACCTC,0.0324
15,CCTGGGCA,-0.15
16,ATTAAGCG,0.317
17,ACGTCTAT,-0.182
18,CGTCCGGA,-0.104
19,CACGTATA,0.433
20,GGCAAACC,-0.148
21,AGCGTTCA,-0.0376
22,TAACCTCA,-0.0456
23,AGCTATGA,-0.0903
24,AAATCTGA,-0.145
25,CATCGGAC,-0.0234

row,Sequence,PBM E-score
1,GCGGTGAA,-0.025
2,AAACAGCC,-0.093
3,GCTACGAA,0.395
4,ATGATTGG,-0.205
5,ACTCATCC,-0.0482
6,GACCCACC,-0.113
7,GATACCCA,0.00945
8,AACGCTCC,-0.037
9,CAATCTGG,-0.267
10,CACATTAA,-0.133
11,TAGATCAA,0.0327
12,AAAGTGAT,-0.0453
13,AAAGCGTA,0.262
14,GCACGATA,-0.0168
15,ACTAAAGC,-0.0826
16,AGCCTGAC,-0.13
17,GCATGTAA,-0.0858
18,ATCAGGCA,-0.275
19,ACCTCTCT,-0.169
20,GGAACTCA,-0.217
21,TCATGGAA,-0.0507
22,AGTAGCAC,-0.105
23,CTGACCGC,-0.0413
24,AAGGATAG,-0.143
25,TCATAGGA,-0.0211

row,Sequence,PBM E-score
1,ACATGGGT,-0.0993
2,ACAAGGGT,-0.0246
3,CGCGGATA,0.0827
4,GGTAGTCA,-0.112
5,ATCACCAG,-0.124
6,ACTGAAAA,0.129
7,CTTCTCTC,-0.0112
8,ACGCCTCG,0.251
9,CTTAGCTA,-0.103
10,AGCTACGC,0.148
11,TAAAGAAA,0.0128
12,ACGTTAGG,-0.0536
13,ACGAACGC,0.323
14,CCATGAAA,-0.127
15,CTAGCCAC,-0.208
16,GCGTTGTA,0.127
17,CCGGAGAC,-0.0181
18,ACTAGTAT,-0.0348
19,CAGAGGAC,-0.0978
20,ATAGAACC,-0.206
21,ACAGACCA,-0.00784
22,ACGGATCT,0.032
23,GTATTCGA,0.165
24,GTGGGCGA,-0.212
25,GGGAAGAC,-0.131

row,Sequence,PBM E-score
1,TAGCTAAA,0.119
2,AGGGATGG,-0.0173
3,AGTTTTGC,0.0231
4,CGGACTAA,-0.0805
5,CACACCAG,-0.194
6,ACGACGCA,0.389
7,AATCCCCA,-0.199
8,CTGCACAG,-0.0455
9,AGATTTTA,-0.129
10,TATTGGGA,-0.0703
11,GGAGGACC,-0.299
12,CACCGATG,-0.0949
13,CCCGATTA,0.0106
14,AGGACTGC,-0.241
15,AGACTCAG,-0.106
16,GGTACTAC,0.0298
17,CTTCGGGC,-0.0715
18,AGTAGCCC,-0.25
19,CGCAGTTC,0.112
20,CCACTAAG,-0.176
21,AGTGGCAT,-0.0178
22,GCGAAGCA,0.0249
23,CACCGGAA,0.0707
24,CCATGTGA,-0.253
25,AAATTAGA,-0.0162

row,Sequence,PBM E-score
1,CTCGTTGA,0.313
2,TCCAATCA,-0.118
3,ATTGACAG,-0.0958
4,GAAAGTCC,-0.273
5,GAATTCAC,0.036
6,GTATCCAA,-0.0131
7,ATCCTCAA,-0.16
8,GCAATCGA,0.122
9,ATTACGCG,0.191
10,ACGTCATG,0.0103
11,CGGGTAAC,0.125
12,ACCAGCGA,-0.138
13,CAGCCGCA,-0.0445
14,ACCTTTGA,-0.162
15,GCCATTTA,-0.103
16,CAGCATCA,-0.19
17,TATTTTGA,-0.197
18,CAAAGGCA,-0.118
19,TCGTCCAA,-0.0174
20,ATGGGAAT,-0.1
21,GCATGCCA,0.00258
22,CTGTTCAA,-0.0588
23,CACGCTTC,-0.156
24,CCCATTTC,-0.248
25,GTGCGCTA,0.117

row,Sequence,PBM E-score
1,AAATAGCT,-0.0788
2,AAACGACT,0.456
3,CTATCATA,-0.021
4,ACTATACT,0.152
5,TTCCCCAA,-0.188
6,CAAGTTAA,-0.063
7,AACTCAAT,-0.0483
8,AACAATGG,-0.0256
9,GCGAATAC,0.213
10,CGGTACCC,-0.0601
11,AACTGGCA,-0.037
12,CCGCATGC,-0.106
13,CCCAGCAG,-0.127
14,ATACTTTA,-0.0548
15,ATCTCTAG,-0.129
16,CCGTCCCC,-0.22
17,CTGCATAC,0.14
18,TAGACAAA,-0.101
19,AATGTTCG,0.091
20,CCAGGCCA,-0.342
21,GAGAGGCC,-0.193
22,AATTGTGT,0.0215
